# Data: the supplement of paper PMC4604168 (melanoma cell lines)
# The list shows a part of the results. Single values are uncertain, as repeats are few or missing.
# Columns and labels:
# Assay in all cases: cell count relative to DMSO control; melanoma cells; higher = more viable cells
# Conditions in all cases: library dose: standard library concentration; 72 h
# G361 = system: G361
# IPC-298 = system: IPC-298
# IST-MEL1 = system: IST-MEL1
# LB2518-MEL = system: LB2518-MEL
# LOXIMVI = system: LOXIMVI
# MEL-HO = system: MEL-HO
# MZ2-MEL = system: MZ2-MEL
# MeWo = system: MeWo
# RPMI7951 = system: RPMI7951
# RVH-421 = system: RVH-421
# SkMel28 = system: SkMel28
# SkMel2 = system: SkMel2
# SkMel30 = system: SkMel30
# SkMel5 = system: SkMel5
# UACC257 = system: UACC257
# UACC62 = system: UACC62
# WM115 = system: WM115
# WM1716 = system: WM1716
# WM1745 = system: WM1745
# WM3526 = system: WM3526
# 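Note: cells treated in 1,536-well plates, then fixed and DAPI-stained, with nuclei counted from automated high-throughput microscope images.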
SMILES,cell count (G361),cell count (IPC-298),cell count (IST-MEL1),cell count (LB2518-MEL),cell count (LOXIMVI),cell count (MEL-HO),cell count (MZ2-MEL),cell count (MeWo),cell count (RPMI7951),cell count (RVH-421),cell count (SkMel28),cell count (SkMel2),cell count (SkMel30),cell count (SkMel5),cell count (UACC257),cell count (UACC62),cell count (WM115),cell count (WM1716),cell count (WM1745),cell count (WM3526)
"CC[C@]1(O)C[C@H]2CN(CCc3c([nH]c4ccccc34)[C@@](C(=O)OC)(c3cc4c(cc3OC)N(C=O)[C@H]3[C@@](O)(C(=O)OC)[C@H](OC(C)=O)[C@]5(CC)C=CCN6CC[C@]43[C@@H]65)C2)C1 [vincristine] + CS(=O)(=O)CCNCc1ccc(-c2ccc3ncnc(Nc4ccc(OCc5cccc(F)c5)c(Cl)c4)c3c2)o1 [lapatinib] (first compound 0.0005 µM, partner dose 4 µM)",6.64%,26%,28.6%,33.4%,55.3%,29.3%,35.9%,29.5%,15.4%,37.3%,14%,12.6%,41.1%,25.9%,47.8%,27.5%,31.8%,31.3%,36.3%,43.5%
"CC[C@]1(O)C[C@H]2CN(CCc3c([nH]c4ccccc34)[C@@](C(=O)OC)(c3cc4c(cc3OC)N(C=O)[C@H]3[C@@](O)(C(=O)OC)[C@H](OC(C)=O)[C@]5(CC)C=CCN6CC[C@]43[C@@H]65)C2)C1 [vincristine] + CN1CCN(c2ccc3nc(-c4c(N)c5c(F)cccc5[nH]c4=O)[nH]c3c2)CC1 [Dovitinib] (first compound 0.0005 µM, partner dose 0.5 µM)",52.8%,53.4%,55.4%,51.8%,51.6%,64.1%,42.4%,29.2%,24.1%,56.5%,22.8%,42.1%,39.3%,35.2%,64.4%,43.8%,34.6%,34.2%,46.9%,31.8%
"CC[C@]1(O)C[C@H]2CN(CCc3c([nH]c4ccccc34)[C@@](C(=O)OC)(c3cc4c(cc3OC)N(C=O)[C@H]3[C@@](O)(C(=O)OC)[C@H](OC(C)=O)[C@]5(CC)C=CCN6CC[C@]43[C@@H]65)C2)C1 [vincristine] + Cc1ccc(Nc2nccc(N(C)c3ccc4c(C)n(C)nc4c3)n2)cc1S(N)(=O)=O [Pazopanib] (first compound 0.0005 µM, partner dose 2 µM)",82%,74.1%,95.8%,80.1%,88.6%,88.8%,73.8%,104%,68.4%,33.6%,64.9%,108%,77%,70.1%,89.5%,47.3%,65.6%,51.6%,82.8%,54%
"CC[C@]1(O)C[C@H]2CN(CCc3c([nH]c4ccccc34)[C@@](C(=O)OC)(c3cc4c(cc3OC)N(C=O)[C@H]3[C@@](O)(C(=O)OC)[C@H](OC(C)=O)[C@]5(CC)C=CCN6CC[C@]43[C@@H]65)C2)C1 [vincristine] + C=CCNC1=C2C[C@@H](C)C[C@H](OC)[C@H](O)[C@@H](C)/C=C(\C)[C@H](OC(N)=O)[C@@H](OC)/C=C\C=C(/C)C(=O)NC(=CC1=O)C2=O [Tanespimycin] (first compound 0.0005 µM, partner dose 0.01 µM)",57.7%,90.4%,36.8%,79.9%,110%,66.9%,91.8%,77%,16.9%,67.1%,53%,80.6%,81.1%,57.2%,86.3%,55.6%,22.6%,45.7%,56%,45.7%
"N#CC[C@H](C1CCCC1)n1cc(-c2ncnc3[nH]ccc23)cn1 [ruxolitinib] + CN(c1ncccc1CNc1nc(Nc2ccc3c(c2)CC(=O)N3)ncc1C(F)(F)F)S(C)(=O)=O [PF562271] (first compound 5 µM, partner dose 0.4 µM)",74.3%,80.6%,76.7%,98.7%,61.1%,72.7%,67.5%,90.7%,63.5%,88.1%,58.9%,84%,73.8%,58.3%,73.8%,55.4%,84.5%,69.5%,56.8%,96.2%
"Cc1cc(Nc2cc(N3CCN(C)CC3)nc(Sc3ccc(NC(=O)C4CC4)cc3)n2)n[nH]1 [Tozasertib] + C[C@@H](N)c1ccc(C(=O)Nc2ccnc3[nH]ccc23)cc1 [RKI983] (first compound 0.03 µM, partner dose 2 µM)",104%,92.6%,94.9%,79.5%,64%,50.8%,58.8%,58.2%,93.3%,60.5%,61.3%,115%,93.7%,84%,47.3%,75%,73.4%,57.2%,43%,120%
"CC[C@]1(O)C[C@H]2CN(CCc3c([nH]c4ccccc34)[C@@](C(=O)OC)(c3cc4c(cc3OC)N(C=O)[C@H]3[C@@](O)(C(=O)OC)[C@H](OC(C)=O)[C@]5(CC)C=CCN6CC[C@]43[C@@H]65)C2)C1 [vincristine] + Cn1c(Nc2ccc(C(F)(F)F)cc2)nc2cc(Oc3ccnc(-c4ncc(C(F)(F)F)[nH]4)c3)ccc21 [CHIR265] (first compound 0.0005 µM, partner dose 0.4 µM)",29.7%,51.3%,70.1%,35.6%,68.2%,59.9%,49.1%,68.5%,24.8%,33.8%,26.4%,30.7%,52.3%,38.3%,68.5%,39.3%,31.2%,47.9%,51.6%,31.4%
"CC[C@]1(O)C[C@H]2CN(CCc3c([nH]c4ccccc34)[C@@](C(=O)OC)(c3cc4c(cc3OC)N(C=O)[C@H]3[C@@](O)(C(=O)OC)[C@H](OC(C)=O)[C@]5(CC)C=CCN6CC[C@]43[C@@H]65)C2)C1 [vincristine] + CC1(C)CCC(c2ccc(Cl)cc2)=C(CN2CCN(c3ccc(C(=O)NS(=O)(=O)c4ccc(N[C@H](CCN5CCOCC5)CSc5ccccc5)c(S(=O)(=O)C(F)(F)F)c4)cc3)CC2)C1 [ABT263] (first compound 0.0005 µM, partner dose 2 µM)",78.9%,98.3%,98%,95.1%,79.2%,80.1%,112%,90.5%,50.3%,80.4%,68.1%,83.4%,42.2%,82.4%,26.1%,34.8%,80.5%,23.4%,5.92%,52.3%
"N#CC[C@H](C1CCCC1)n1cc(-c2ncnc3[nH]ccc23)cn1 [ruxolitinib] + CO[C@H]1C[C@@H]2CC[C@@H](C)[C@@](O)(O2)C(=O)C(=O)N2CCCC[C@H]2C(=O)O[C@H]([C@H](C)C[C@@H]2CC[C@@H](OCCO)[C@H](OC)C2)CC(=O)[C@H](C)/C=C(\C)[C@@H](O)[C@@H](OC)C(=O)[C@H](C)C[C@H](C)/C=C/C=C/C=C/1C [everolimus] (first compound 5 µM, partner dose 0.1 µM)",73%,74.8%,76.2%,87.7%,83.2%,62.5%,76.8%,68.9%,57.3%,79.7%,52%,73%,63.9%,55.6%,84.5%,68.5%,72%,68.7%,80.1%,79.1%
"CC[C@]1(O)C[C@H]2CN(CCc3c([nH]c4ccccc34)[C@@](C(=O)OC)(c3cc4c(cc3OC)N(C=O)[C@H]3[C@@](O)(C(=O)OC)[C@H](OC(C)=O)[C@]5(CC)C=CCN6CC[C@]43[C@@H]65)C2)C1 [vincristine] + COc1cc(Nc2ncc(F)c(Nc3ccc4c(n3)NC(=O)C(C)(C)O4)n2)cc(OC)c1OC [Tamatinib] (first compound 0.0005 µM, partner dose 2 µM)",19.3%,53.2%,101%,41.6%,20.5%,48.4%,44.8%,21.3%,14.6%,6.67%,19.8%,11.1%,37.6%,17.8%,47.1%,50%,14.6%,23.8%,26.3%,30%
"CC[C@]1(O)C[C@H]2CN(CCc3c([nH]c4ccccc34)[C@@](C(=O)OC)(c3cc4c(cc3OC)N(C=O)[C@H]3[C@@](O)(C(=O)OC)[C@H](OC(C)=O)[C@]5(CC)C=CCN6CC[C@]43[C@@H]65)C2)C1 [vincristine] + O=C(O)c1ccc(-c2c[nH]c3ncc(-c4ccccc4)cc23)cc1C1CCCC1 [GSK650394] (first compound 0.0005 µM, partner dose 0.8 µM)",65.6%,94.8%,30.1%,94%,88.8%,66.2%,94.3%,96.6%,55.9%,29.1%,54.1%,78.3%,75.7%,89.8%,69.2%,81.6%,84.6%,65.2%,111%,71.1%
"Cc1cc(Nc2cc(N3CCN(C)CC3)nc(Sc3ccc(NC(=O)C4CC4)cc3)n2)n[nH]1 [Tozasertib] + COCC[n+]1c2c(n(Cc3cnccn3)c1C)C(=O)c1ccccc1C2=O [YM155] (first compound 0.03 µM, partner dose 0.002 µM)",73.1%,55.9%,49.2%,26.8%,61.2%,82.9%,31%,34.1%,41.9%,378%,31.6%,40.7%,67.2%,31.9%,30%,52.8%,40.8%,54.6%,51.5%,34.9%
"N#CC[C@H](C1CCCC1)n1cc(-c2ncnc3[nH]ccc23)cn1 [ruxolitinib] + Cn1c(Nc2ccc(C(F)(F)F)cc2)nc2cc(Oc3ccnc(-c4ncc(C(F)(F)F)[nH]4)c3)ccc21 [CHIR265] (first compound 5 µM, partner dose 0.4 µM)",35.5%,35.5%,88.6%,32.2%,65.9%,63.8%,62.5%,74.1%,55.4%,39.1%,38.2%,56.8%,47.3%,23.9%,79.1%,49.7%,62.8%,65.7%,66.8%,49.3%
"Cc1cc(Nc2cc(N3CCN(C)CC3)nc(Sc3ccc(NC(=O)C4CC4)cc3)n2)n[nH]1 [Tozasertib] + CCN(CC)CCNC(=O)c1c(C)[nH]c(/C=C2\C(=O)Nc3ccc(F)cc32)c1C [sunitinib] (first compound 0.03 µM, partner dose 2 µM)",71.7%,56.9%,96.3%,45.7%,162%,84%,52.6%,49.3%,66.5%,113%,25%,55.8%,63.8%,52.8%,81%,58%,30.3%,72.1%,43.1%,53.9%
